# Source: the supplement of paper PMC8728848
# The list shows a part of the results.
# B1: Epa1 (Candida glabrata) (protein)
# chain: MGSSHHHHHHSSGLVPRGSHMTSSNDISLASKDPTTFPLGCSPDITTPKKGLSMELYSYDFRKKGSYPCWDAAYLDPNYPRTGYKSHRLLAKVDGVTGNINFYYHATKGCTPQLGHLPASYNYPKPLTMTNFTMLLYGYFRPKVTGFHTFTISADDLLFVNFGAGNAFDCCRRDSSADHFGNYQAYAIWGSKTAKDELTVHLDAGVYYPIRLFYNNREYDGALSFTFKTESNENTVSDFSEYFFSLDDTEEGCPGLISYD
# What was measured:
# Assay in all cases: glycan array binding signal (z-score within array); higher = stronger binding
# Conditions in all cases: glycan notation: IUPAC condensed, linker removed
# [1] = target: Gal(a1-3)Gal
# In short: (§1)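 Glycan array data were curated from 3228 arrays in the Consortium for Functional Glycomics database and kept only where the protein sequence was available. Glycan names were converted to IUPAC-condensed notation, and columns mapping to the same glycan were averaged. The binding signal is a within-array Z-score, averaged across arrays of the same protein sequence at different concentrations or buffers and across linkers. Negative Z-scores can be read as non-binding.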
# [2] = target: Gal(a1-3)Gal(b1-3)GlcNAc
# In short: as §1
# [3] = target: Gal(a1-3)Gal(b1-3)GlcNAc(b1-2)Man
# In short: as §1
# [4] = target: Gal(a1-3)Gal(b1-3)GlcNAc(b1-2)Man(a1-3)[Gal(a1-3)Gal(b1-3)GlcNAc(b1-2)Man(a1-6)]Man(b1-4)GlcNAc(b1-4)GlcNAc
# In short: as §1
# [5] = target: Gal(a1-3)Gal(b1-3)GlcNAc(b1-3)GalNAc
# In short: as §1
# [6] = target: Gal(a1-3)Gal(b1-3)GlcNAc(b1-6)GalNAc
# In short: as §1
# [7] = target: Gal(a1-3)Gal(b1-3)[Fuc(a1-4)]GlcNAc(b1-2)Man(a1-3)[Gal(a1-3)Gal(b1-3)[Fuc(a1-4)]GlcNAc(b1-2)Man(a1-6)]Man(b1-4)GlcNAc(b1-4)GlcNAc
# In short: as §1
# [8] = target: Gal(a1-3)Gal(b1-4)Glc
# In short: as §1
# [9] = target: Gal(a1-3)Gal(b1-4)GlcNAc
# In short: as §1
# [10] = target: Gal(a1-3)Gal(b1-4)GlcNAc(b1-2)Man
# In short: as §1
# [11] = target: Gal(a1-3)Gal(b1-4)GlcNAc(b1-2)Man(a1-3)[Gal(a1-3)Gal(b1-4)GlcNAc(b1-2)Man(a1-6)]Man(b1-4)GlcNAc(b1-4)GlcNAc
# In short: as §1
# [12] = target: Gal(a1-3)Gal(b1-4)GlcNAc(b1-3)GalNAc
# In short: as §1
# [13] = target: Gal(a1-3)Gal(b1-4)GlcNAc(b1-6)GalNAc
# In short: as §1
# [14] = target: Gal(a1-3)Gal(b1-4)[Fuc(a1-3)]GlcNAc
# In short: as §1
# [15] = target: Gal(a1-3)Gal(b1-4)[Fuc(a1-3)]GlcNAc(b1-2)Man(a1-3)[Gal(a1-3)Gal(b1-4)[Fuc(a1-3)]GlcNAc(b1-2)Man(a1-6)]Man(b1-4)GlcNAc(b1-4)GlcNAc
# In short: as §1
# [16] = target: Gal(a1-3)GalNAc
# In short: as §1
# [17] = target: Gal(a1-3)[Gal(a1-4)]Gal(b1-4)GlcNAc
# In short: as §1
# [18] = target: Gal(a1-4)Gal(b1-3)GlcNAc(b1-2)Man(a1-3)[Gal(a1-4)Gal(b1-3)GlcNAc(b1-2)Man(a1-6)]Man(b1-4)GlcNAc(b1-4)GlcNAc
# In short: as §1
# [19] = target: Gal(a1-4)Gal(b1-4)Glc
# In short: as §1
# [20] = target: Gal(a1-4)Gal(b1-4)GlcNAc
# In short: as §1
# [21] = target: Gal(a1-4)Gal(b1-4)GlcNAc(b1-2)Man(a1-3)[Gal(a1-4)Gal(b1-4)GlcNAc(b1-2)Man(a1-6)]Man(b1-4)GlcNAc(b1-4)GlcNAc
# In short: as §1
# [22] = target: Gal(a1-4)Gal(b1-4)GlcNAc(b1-3)Gal(b1-4)Glc
# In short: as §1
# [23] = target: Gal(a1-4)GlcNAc
# In short: as §1
# [24] = target: Gal(a1-6)Glc
# In short: as §1
# [25] = target: Gal(b1-2)Gal
# In short: as §1
# [26] = target: Gal(b1-3)Gal
# In short: as §1
# [27] = target: Gal(b1-3)Gal(b1-4)GlcNAc
# In short: as §1
# [28] = target: Gal(b1-3)GalNAc
# In short: as §1
# [29] = target: Gal(b1-3)GalNAc(a1-3)[Fuc(a1-2)]Gal(b1-4)Glc
# In short: as §1
# [30] = target: Gal(b1-3)GalNAc(a1-3)[Fuc(a1-2)]Gal(b1-4)GlcNAc
# In short: as §1
# [31] = target: Gal(b1-3)GalNAc(b1-3)Gal
# In short: as §1
# [32] = target: Gal(b1-3)GalNAc(b1-3)Gal(a1-4)Gal(b1-4)Glc
# In short: as §1
# [33] = target: Gal(b1-3)GalNAc(b1-4)Gal(b1-4)Glc
# In short: as §1
# [34] = target: Gal(b1-3)GalNAc(b1-4)[Neu5Ac(a2-3)]Gal(b1-4)Glc
# In short: as §1
# [35] = target: Gal(b1-3)GlcNAc
# In short: as §1
# [36] = target: Gal(b1-3)GlcNAc(a1-3)Gal(b1-4)GlcNAc
# In short: as §1
# [37] = target: Gal(b1-3)GlcNAc(a1-6)Gal(b1-4)GlcNAc
# In short: as §1
# [38] = target: Gal(b1-3)GlcNAc(b1-2)Man
# In short: as §1
binder,measurement,setting,value
B1,glycan array binding signal (z-score),[1],-0.202
same,glycan array binding signal (z-score),[2],-0.256
same,glycan array binding signal (z-score),[3],-0.257
same,glycan array binding signal (z-score),[4],-0.175
same,glycan array binding signal (z-score),[5],-0.295
same,glycan array binding signal (z-score),[6],-0.266
same,glycan array binding signal (z-score),[7],-0.232
same,glycan array binding signal (z-score),[8],-0.278
same,glycan array binding signal (z-score),[9],-0.179
same,glycan array binding signal (z-score),[10],-0.292
same,glycan array binding signal (z-score),[11],-0.235
same,glycan array binding signal (z-score),[12],-0.277
same,glycan array binding signal (z-score),[13],-0.164
same,glycan array binding signal (z-score),[14],0.015
same,glycan array binding signal (z-score),[15],-0.266
same,glycan array binding signal (z-score),[16],-0.266
same,glycan array binding signal (z-score),[17],-0.254
same,glycan array binding signal (z-score),[18],-0.266
same,glycan array binding signal (z-score),[19],-0.259
same,glycan array binding signal (z-score),[20],-0.081
same,glycan array binding signal (z-score),[21],-0.142
same,glycan array binding signal (z-score),[22],-0.256
same,glycan array binding signal (z-score),[23],0.013
same,glycan array binding signal (z-score),[24],-0.125
same,glycan array binding signal (z-score),[25],-0.096
same,glycan array binding signal (z-score),[26],3.63
same,glycan array binding signal (z-score),[27],8.5
same,glycan array binding signal (z-score),[28],3.51
same,glycan array binding signal (z-score),[29],2.05
same,glycan array binding signal (z-score),[30],2.44
same,glycan array binding signal (z-score),[31],6.23
same,glycan array binding signal (z-score),[32],2.5
same,glycan array binding signal (z-score),[33],9.89
same,glycan array binding signal (z-score),[34],4.04
same,glycan array binding signal (z-score),[35],-0.059
same,glycan array binding signal (z-score),[36],-0.16
same,glycan array binding signal (z-score),[37],0.132
same,glycan array binding signal (z-score),[38],0.114
